Hit rate of the full screen: of about 46,000 compounds, about 60 (0.1%) were called active. About 3% were inconclusive and are not listed. Calls come from the whole dose curve; as a rule, active = well fitted inhibition curve with a large enough effect; inconclusive = small, poorly fitted or top-dose-only effect; inactive = no such curve, though single readings can be large or run the other way. This is one part of the list.
Assay: Primary qHTS assay for Inhibitors of ovarian cancer metastasis using an organotypic tumor microenvironment (TME) model.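 For activity change, negative = inhibition: plate controls were DMSO wells for no effect and tomatine positive control wells for full effect.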 Note: nearly all actives have a fitted effect of over 65% in size.
Conditions: SKOV3ip1-GFP adhesion/invasion on 3D omental model, fluorescence; series mostly up to 45.8 µM; activity change, negative = inhibition: at the top concentration
Outline: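 qHTS, 4-pt dose (0.36-46 umol/L); SKOV3ip1-GFP, 1,200 cells/well, no FBS; primary omental fibroblast/mesothelial co-culture 48 h pre-grown; 2 h RT + 16 h 37 C; PBS wash, 4% PFA; GFP count 488/509 nm.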

Activity change, negative = inhibition, inactive:
Cc1ccc2nc(N3CCN(c4cccc(C)c4C)CC3)c3nnnn3c2c1 9.66%
COc1ccccc1CNC(=O)c1cccc(Nc2nc3ccccc3n3nnnc23)c1 -12.5%
COc1ccc(NC(=O)Cc2csc(C)n2)cc1 1.26%
CC(C)(C)C(=O)Nc1c(C(=O)N2CCN(c3ccc(F)cc3)CC2)oc2ccccc12 -4.66%
Cc1ccccc1Nc1c2c(nc3nncn13)CCC2 9.63%
CCc1cccc(NC(=O)CSc2ncc3c(n2)-c2ccccc2N(Cc2ccccc2C)S3(=O)=O)c1 0.94%
O=C(CC1(O)C(=O)N(CCc2ccccc2)c2ccc(Br)cc21)c1ccccc1O (configuration not stated) -8.44%
CC(=O)c1ccc(NC(=O)NCCc2c[nH]c3ccccc23)cc1 3.72%
Cc1cccc(-c2nc3scc(CCNC(=O)c4ccccc4Cl)n3n2)c1 4.91%
CCOC(=O)C1CCN(S(=O)(=O)c2cc(-c3cc(C)no3)ccc2C)CC1 -9.88%
Cc1ccc(CCNc2nc3c(S(=O)(=O)c4ccc(C)cc4)nnn3c3ccsc23)cc1 13.9%
CC(C)c1ccc(NC(=O)c2ccc(NC(=O)CCS(=O)(=O)c3cccs3)cc2)cc1 -6.5%
CCOC(=O)c1[nH]c(C)c(CCC(=O)Nc2ccc(N(CC)CC)cc2C)c1C 15.4%
Cc1ccc(-c2c3c(=O)n(C)c(=O)n(C)c3c3c(C(F)(F)F)nc4ccccc4n23)cc1 -22.6%
Cc1c(NC(=O)c2sc3c([N+](=O)[O-])cccc3c2Cl)cccc1-c1nc2ccccc2o1 -8.88%
CSc1ccc(CCNC(=O)C(C)n2c(C)c3cnn(-c4ccccc4)c(=O)c3c2C)cc1 (configuration not stated) 41%
COc1cc(NC(=O)Cn2c(C)cc3ccccc3c2=O)cc(OC)c1OC -3.26%
CCc1ccc(CNC(=O)CCN2C(=O)COc3ccccc32)cc1 5.68%
Cc1nc(-c2ccc(F)cc2)sc1CCNC(=O)c1ccco1 -8.5%
CC(=O)Nc1cc(C(=O)NCc2ccc(F)cc2Cl)ccc1Sc1ccc(Cl)cc1 -4.36%
Cc1ccc(/C=C/c2onc(C)c2S(=O)(=O)N2CCC(C(=O)N3CCOc4ccccc43)CC2)cc1 -6.67%
O=C(Cn1c(=O)n(Cc2ccccc2)c(=O)c2oc3ccccc3c21)Nc1ccc(Cl)cc1 -10.9%
COC(=O)c1cc2oc(C)cc2n1CC(=O)Nc1ccc(C)cc1C 6.41%
COc1ccccc1N(Cc1cc2cccc(C)c2[nH]c1=O)C(=O)c1cccc(Cl)c1 -21.8%
COc1ccc(CNC(=O)CCCc2cn(C)c3ccccc23)c(OC)c1 0.445%
Oc1ccc(Cl)cc1Nc1nc2ccccc2n2cnnc12 1.16%
O=C(CCS(=O)(=O)c1ccc2c(c1)NC(=O)CO2)Nc1cccc(C(F)(F)F)c1 34.9%
CCNC(=O)CC1C(=O)N(c2ccc(C)cc2)C(=O)N1Cc1ccc(C)cc1 (configuration not stated) -13.8%
COc1ccc(CCn2c3c(c(=O)[nH]c2=O)C(NC(=O)c2ccccc2)(C(F)(F)F)C(=O)N3)cc1OC (configuration not stated) 4.04%
NC(=O)c1cc(S(=O)(=O)N2CCCCC2)cs1 -8.43%
CCOc1ccc(N(C(=O)c2ccc(C)cc2)S(=O)(=O)c2ccc3c(c2)n(C)c(=O)n3C)cc1 1.75%
Cc1ccc2nc(-c3ccc(C)c(NC(=O)CSc4ccc(Cl)cc4)c3)oc2c1 0.951%
CCC(=C(c1ccccc1)c1ccc(OCCN(C)C)cc1)c1ccccc1 2.94%
CCn1cc(S(=O)(=O)c2cc(C)cc(C)c2)c(=O)c2cc(F)c(N3CCC(C)CC3)cc21 -8.75%
CCN(CC)C(=O)Cn1c(=O)n(CCCCCC(=O)NCc2ccccc2Cl)c(=O)c2sccc21 -2.76%
O=C(NCc1ccc(Cl)cc1)c1cc2ccccc2o1 -11.9%
Cc1ccc(Cl)cc1N1CCN(C(=O)Cn2cnc3nc4c(cc3c2=O)CCCC4)CC1 8.08%
Cc1ccc(C(=O)Nc2nc3n(n2)C(c2ccccc2)C=C(c2ccccc2)N3)cc1 (configuration not stated) 20.4%
Cc1ccc(NC(=O)CCNS(=O)(=O)c2cccc3nsnc23)cc1 -0.766%
NC(=O)OCC(COC(N)=O)c1ccccc1 8.37%
CC1CCc2onc(C(=O)N3CCN(c4cccc(C(F)(F)F)c4)CC3)c2C1 (configuration not stated) -3.02%
CCOc1ccc(-c2nc(SCC(=O)Nc3ccc4c(c3)OCCO4)c(-c3ccc(F)cc3)[nH]2)cc1 2.48%
CCOc1ccc(-c2nonc2NC(=O)c2ccc(C)cc2)cc1OCC -2.45%
CCC(=O)N1CCc2cc(Br)cc(S(=O)(=O)CCC(=O)NCCc3ccccc3Cl)c21 2.73%

outcome, inactive:
CCOc1ccc(-c2cc(C(=O)NCc3ccccc3)c3c(-c4ccc(CC)cc4)[nH]nc3n2)cc1
CC1CCN(CCNC(=O)c2ccc(Cn3c(SCc4ccccc4)nc4cccnc43)cc2)CC1
Cc1cccc(NC(=O)CSc2nnc(CNC(=O)c3c(F)cccc3Cl)o2)c1C
CC(C)c1nn2c(=O)cc(COC(=O)c3ccc(NC(=O)CCc4ccccc4)cc3)nc2s1
CCCCCn1c(=O)[nH]c2cc(C(=O)Nc3ccc(F)cc3)ccc2c1=O
Cc1ccc(-n2ncc3c(NCCCc4ccccc4)ncnc32)cc1C
CCS(=O)(=O)N1CC(=O)N(c2cccc(C)c2C)C(C)(C(=O)NC2CCCCC2)C1 (configuration not stated)
COc1cc(OC)cc(C(=O)Nc2c(C(=O)Nc3ccc(F)cc3)oc3ccccc23)c1
COc1ccc(NC(=O)Cn2nnc(C(=O)NCc3ccccc3Cl)c2N)cc1Cl
O=C(NCc1cccc(Br)c1)c1cccn1-c1nnc(N2CCCCC2)s1
COc1ccc(OC)c(NC(=O)c2ccc3c(c2)c(C)c(C)n3Cc2ccc(F)cc2)c1
Cc1ccc(C)n1-c1nnc(N2CCCC(C(=O)NCc3ccc(F)cc3)C2)s1 (configuration not stated)
Cc1ccc2cccc(NC(=O)c3ccc(-c4cc(Cl)ccc4Cl)o3)c2n1
Cc1cc(C)c(/C=C/c2onc(C)c2S(=O)(=O)N2CCC(C(=O)N3CCN(c4ccc(Cl)cc4)CC3)CC2)c(C)c1
Cc1ccc(NC(=O)Cn2c(C)cc(C)c(C#N)c2=O)cc1F
CN(CC(=O)Nc1ccc(F)cc1F)S(=O)(=O)c1ccc(C(=O)N2CCOCC2)s1
COc1ccc(-c2nc3ccccc3s2)cc1NC(=O)c1cc2ccccc2o1
O=C(Cc1csc2ccccc12)NCc1ccccc1F

From PubChem BioAssay AID1963576 (National Center for Advancing Translational Sciences (NCATS), 2024)
